Assay results taken from PMC9226319, “Peripherally restricted transthyretin-based delivery system for probes and therapeutics avoiding opioid-related side effects” (Nature Communications, 2022).
Values joined by “and” are separate entries in the source; they are usually repeats but may differ in a detail not shown here. Identical values can stand only once. Like-named read-outs stand apart in the source and are kept apart here.

Test system: Jurkat cell line
Conditions: for % Cell viability: Jurkat cell line MTT assay, replicates

Structure (SMILES) | % Cell viability (10 μM) | % Cell viability (100 μM) | % Cell viability (1 μM) | cytotoxicity, Jurkat (10 and 100 µM, 72 h, MTT)
C=CCN1CC[C@]23c4c5ccc(O)c4O[C@H]2[C@@H](OCc2cn(CCNCCCCCCOc4cc(OCCCc6c(C)n[nH]c6C)cc(C(=O)O)c4)nn2)CC[C@@]3(O)[C@H]1C5 [AG10-L2-Nal] | 95% and 104% and 105% | 99% and 100% | – | –
COc1cccc2c1C(=O)c1c(O)c3c(c(O)c1C2=O)C[C@@](O)(C(=O)CO)C[C@@H]3O[C@H]1C[C@H](N)[C@H](O)[C@H](C)O1 [DOX] | – | – | 16% and 17% | –
C=CCN1CC[C@]23c4c5ccc(O)c4O[C@H]2[C@@H](OCCOCCOCCOCCOCCOCCOCCOC)CC[C@@]3(O)[C@H]1C5 [Naloxegol, reference compound] | 105% | 102% | – | no cytotoxicity
